Laboratory results from publication PMC4336329 (PLoS ONE, 2015).
Screen size: about 310,000 compounds; about 2,200 (0.71%) showed an effect of 50% or more. Effects have a minus sign here. The list shows a part of the results.

Target: human ether-à-go-go-related gene (hERG) potassium channel (human, UniProt Q12809)
Experiment: primary screen, population patch clamp on CHO cells stably expressing hERG

Sequence of human ether-à-go-go-related gene (hERG) potassium channel (Q12809 whole entry, looked up): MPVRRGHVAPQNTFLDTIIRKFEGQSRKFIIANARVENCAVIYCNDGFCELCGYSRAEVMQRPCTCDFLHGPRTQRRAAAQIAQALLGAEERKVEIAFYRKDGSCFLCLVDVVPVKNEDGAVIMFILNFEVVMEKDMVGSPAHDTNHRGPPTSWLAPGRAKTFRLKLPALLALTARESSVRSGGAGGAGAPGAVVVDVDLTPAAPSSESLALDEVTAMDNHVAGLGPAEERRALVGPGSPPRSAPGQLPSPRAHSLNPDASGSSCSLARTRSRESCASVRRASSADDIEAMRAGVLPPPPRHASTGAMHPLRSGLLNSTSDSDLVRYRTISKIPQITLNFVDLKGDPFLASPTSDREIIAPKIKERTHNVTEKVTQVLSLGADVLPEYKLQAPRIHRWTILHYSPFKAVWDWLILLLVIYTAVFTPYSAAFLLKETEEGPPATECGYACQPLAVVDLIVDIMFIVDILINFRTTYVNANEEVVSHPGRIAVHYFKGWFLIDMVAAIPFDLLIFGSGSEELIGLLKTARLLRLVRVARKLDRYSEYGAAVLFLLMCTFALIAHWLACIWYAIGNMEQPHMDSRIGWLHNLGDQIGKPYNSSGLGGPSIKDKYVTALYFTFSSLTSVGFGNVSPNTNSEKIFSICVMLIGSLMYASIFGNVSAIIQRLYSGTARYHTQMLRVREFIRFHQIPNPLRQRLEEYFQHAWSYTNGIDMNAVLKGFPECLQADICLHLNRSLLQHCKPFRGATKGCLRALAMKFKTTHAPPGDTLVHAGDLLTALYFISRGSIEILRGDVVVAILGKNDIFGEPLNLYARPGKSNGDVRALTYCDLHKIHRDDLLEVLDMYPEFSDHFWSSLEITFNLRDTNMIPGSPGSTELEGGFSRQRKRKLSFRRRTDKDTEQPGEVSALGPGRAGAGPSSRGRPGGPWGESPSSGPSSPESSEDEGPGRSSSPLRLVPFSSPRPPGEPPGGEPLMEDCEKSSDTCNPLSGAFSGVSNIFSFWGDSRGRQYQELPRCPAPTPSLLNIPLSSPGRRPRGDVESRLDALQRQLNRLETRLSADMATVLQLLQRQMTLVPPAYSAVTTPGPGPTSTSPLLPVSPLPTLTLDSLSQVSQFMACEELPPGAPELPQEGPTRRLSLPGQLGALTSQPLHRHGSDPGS

Compound	hERG current change (%, negative = inhibition) at 1uM
COc1ccc(C(=O)NCc2ccc(-c3nc4ccccc4s3)cc2)cc1	16.5%
O=C(CN(Cc1ccc(F)cc1)C(=O)C1CSC(=O)C1)NC1CCCCC1 (stereo not shown)	0.316%
CCCN(CCC)CCNC(=O)c1cc2c(-c3ccccc3F)nn(C)c2s1	6.33%
COc1ccc(CN(CC(=O)NCc2ccc(F)cc2)C(=O)CCC(=O)Nc2nccs2)cc1	-2.33%
Cc1ccc([N+](=O)[O-])cc1	7.62%
CN(CC(=O)NCCc1ccccc1)S(=O)(=O)c1cccs1	12.8%
Cn1c(SCC(=O)Nc2cc(Cl)cc(Cl)c2)nnc1-c1ccc2nonc2c1	14%
CCOC(=O)CNC(=O)C1(/C=C/c2ccccc2)CC(=O)N1c1ccc(C)cc1 (stereo not shown)	8.37%
CCOc1ccc(NC(=O)C2CC(=O)N(c3ccccc3F)C2)cc1 (stereo not shown)	11.1%
CCC1CCCCN1C(=S)NC1CCCCC1 (stereo not shown)	11.8%
Cc1cc2cc(C#N)c(NCCNC(=S)NCCCN3CCOCC3)nc2cc1C	-1.58%
Cc1ccccc1NC(=O)CSC1=NCCN1.Cl	14.3%
Cc1ccccc1C1c2[nH]c3ccccc3c2CCN1C(=O)c1ccc(=O)n(C)n1 (stereo not shown)	7.28%
COc1ccc(OC)c2c1cc(C(=O)N[C@@H](Cc1ccccc1)C(=O)O)n2C	6.35%
COc1cccc(C2C(C(=O)Nc3ccc(C)cc3C)=C(C)Nc3ncnn32)c1OC (stereo not shown)	8.03%
CC(C)C[C@@H](CC#N)N1CCN(Cc2ccccc2)CCC1=O	10.4%
Cc1ccc(S(=O)(=O)c2nc(-c3ccccc3)oc2NCc2cccnc2)cc1	7.82%
Cc1ccc(-c2nc(COC(=O)c3c(C)noc3C)cs2)cc1	1.75%
O=C(OCC1OC(Oc2ccc(O)cc2)C(O)C(O)C1O)c1ccccc1 (stereo not shown)	12.4%
CS(=O)(=O)Nc1ccc(C(=O)NCc2ccc3c(c2)OCO3)cc1	-3.54%
CCCCOc1cccc(NC(=O)CSc2nncn2C)c1	4.76%
CC(C)OCCCNC(=O)NC12CC3CC(CC(C3)C1)C2	6.16%

Compound	hERG current change (%, negative = inhibition) at 1uM
O=C(CN(Cc1ccc(Br)cc1)S(=O)(=O)c1ccccc1)NCc1ccccn1	5.09%
Cc1cccc(CN2CCNC2=O)c1	11.5%
COc1ccc(C(C)(C)C)cc1NC(=O)Cn1cnnn1	11.9%
O=[N+]([O-])c1ncccc1OCc1ccc(Br)cc1F	14.8%
Cc1[nH]n(-c2ccccc2)c(=O)c1C(c1ccccc1[N+](=O)[O-])C(C#N)C#N (stereo not shown)	7.07%
CC(=O)Nc1ccc(NC(=O)COC(=O)c2c(-c3ccccc3)noc2C)cc1	7.61%
CCOC(=O)CN(C#N)c1nc(N(C)C)nc(N(C)C)n1	0.959%
O=C(Nc1ccc(Cl)cn1)C1C(c2ccccc2)C1(Cl)Cl (stereo not shown)	21.9%
O=C(CN1CCN(S(=O)(=O)N2CCCCC2)CC1)Nc1cc(Cl)cc(Cl)c1	-12.2%
O=c1c(OC2OC(CO)C(O)C(O)C2OC2OC(CO)C(O)C(O)C2OC2OC(CO)C(O)C(O)C2O)c(-c2ccc(O)c(O)c2)oc2cc(O)cc(O)c12 (stereo not shown)	15.5%
COc1ccccc1CO/N=C/c1cccn1-c1nccc(N(C)C)c1C#N	1.23%
COC(=O)c1ccc(OCC(=O)c2ccccc2OC)cc1	1.86%
CCN1CCCC1CNCC(=O)Nc1ccc(OC(F)(F)F)cc1.O=C(O)C(=O)O (stereo not shown)	-40.4%
COc1ccc(S(=O)(=O)N(CCc2ccccc2)CC(=O)NC(C)C)cc1	-0.239%
O=C(OCC#CCSc1nnc(-c2ccncc2)o1)c1cccs1	-14.8%
C=CCN1C(=O)c2ccc(C(=O)OCC(=O)N3CCN(c4ccccc4)CC3)cc2C1=O	5.74%
CCOC(=O)c1cc(S(=O)(=O)Nc2ccc(F)cc2F)cn1C	15.2%
CCN(C(=O)CSc1cc(C)c2ccc(OC)cc2n1)C1CCS(=O)(=O)C1 (stereo not shown)	8.63%
COc1ccc(S(=O)(=O)N2CCC(C(=O)Oc3cccc(C)c3)CC2)cc1OC	20.9%
Cc1ccc(C(=O)OCC(=O)N(CC(C)C)c2c(N)n(Cc3ccccc3)c(=O)[nH]c2=O)cc1[N+](=O)[O-]	8.6%
COc1cc(NC(=O)c2c(F)cccc2F)c(Cl)cc1Cl	10.1%
COc1ccc(N(CC(=O)NCc2ccc(Cl)cc2)S(=O)(=O)c2c(C)n[nH]c2C)cc1	1.42%

Compound	hERG current change (%, negative = inhibition) at 1uM
CC(=O)N1CCN(C(=O)c2c(-c3ccccc3)noc2C)CC1	-1.98%
O=S(=O)(c1ccc2c(c1)OCCO2)N1CCN(c2nc3ccccc3s2)CC1	12.6%
CCCCn1c(SCC(=O)O)nc2ccccc21	15.2%
CCCCCCC(=O)Nc1cc2c(C)cc(=O)oc2cc1C	-6.52%
OCC1(Cc2ccccc2Cl)CCN(C/C=C/c2ccccc2)CC1	-27.8%
COc1ccccc1C(=O)Nc1ccc2oc(-c3ccc(F)cc3)nc2c1	13.7%
O=C(CCc1nnc(CCCCc2ccccc2)o1)NC(c1cccnc1)C(F)(F)F (stereo not shown)	10.1%
CC(C)(C)OC(=O)CNC(=O)c1[nH]cnc1C(=O)N[C@@H](CCCCNC(=O)OC(C)(C)C)C(=O)OC(C)(C)C	10.9%
O=[N+]([O-])c1ccc(C23CC4CC(CC(O)(C4)C2)C3)cc1	-1.55%
CCCCOP(=O)(c1ccc(N(C)C)cc1)C(O)c1cccnc1 (stereo not shown)	3.47%
CCOc1ccccc1NC(=O)NNC(=O)CCc1ccc(OC)cc1	11.3%
CCCS(=O)(=O)c1c(S(=O)(=O)CCC)c2ccc(C(N)=O)cn2c1C(=O)OC	6.12%
Cc1ccc(NC(=O)CSc2nnc(-c3cnccn3)n2Cc2ccco2)cc1	1.89%
COc1cc(/C=N/NC(=O)c2ccncc2)ccc1OCC(=O)Nc1ccccc1	-5.29%
COc1ccc(S(=O)(=O)n2nc(C)cc2C)c(C)c1C	-2.35%
CCOC(=O)c1cc(C#N)c(SCC(N)=O)[nH]c1=O	9.34%
Cc1cc(C)n2nc(SCC(=O)Nc3ccccc3)nc2n1	6.75%
CCOc1cccc(-c2cc(=O)[nH][nH]2)c1	1.42%
COc1cccc(OC)c1C(=O)NCCSC1CCCCC1	6.36%
Cc1ccc(CNC(=O)c2ccc(N3CCc4ccccc43)c([N+](=O)[O-])c2)cc1	9.23%
Cc1ccc(N2C(=O)N(CC(=O)N3CCOCC3)C(=O)C2C)cc1 (stereo not shown)	0.183%
O=C(O)CCCC(=O)NCCCc1ccccc1	1.9%

Compound	hERG current change (%, negative = inhibition) at 1uM
O=C(NCCc1c[nH]c2ccccc12)C(=O)NCC1OCCCN1S(=O)(=O)c1ccc(F)cc1 (stereo not shown)	15.5%
O=C(O)CNS(=O)(=O)c1ccc2c(c1)CCCC2	12.6%
NS(=O)(=O)c1cccc(NC(=O)COC(=O)CN2C(=O)c3ccccc3C2=O)c1	3.65%
CCc1noc(C)c1C(=O)Nc1nc(-c2cccs2)cs1	8.51%
Cc1ccc(C(=O)Nc2sc(C)c(-c3ccccc3)c2C(N)=O)cc1[N+](=O)[O-]	14.7%
CSc1cccc(NS(=O)(=O)c2cccc3nsnc23)c1	8.67%
COCCNC(=S)N/N=C(\C)c1ccc(Cl)c(Cl)c1	13.3%
Cc1ccc(CNC(=O)C2CCCN2S(=O)(=O)c2ccc(Cl)cc2)cc1 (stereo not shown)	-3.52%
COCCNC(=O)C1(C(F)(F)F)CC(CCCO)CCCO1 (stereo not shown)	13.4%
Cc1ccc(S(=O)(=O)NCCCNC(=O)N2CCOCC2)cc1	6.02%
O=C(O)c1cccc(NC(=S)NC(NC(=O)c2ccccc2[N+](=O)[O-])C(Cl)(Cl)Cl)c1 (stereo not shown)	7.88%
CC(C)CCC(CCNCc1ccccn1)c1ccc(Cl)cc1 (stereo not shown)	-40.7%
O=C(CSc1nc2ccccc2s1)Nc1ccc(N2CCOCC2)c(Cl)c1	19.5%
Cc1nc2c([nH]c3ccc(Br)cc32)s1	10.4%
CC(C)(C)N(Cc1ccccc1)C(=O)COC(=O)CNS(=O)(=O)c1ccc2ccccc2c1	12.8%
NC(=S)N/N=C\c1ccc(-c2cccc(Cl)c2Cl)o1	8.81%
O=C(NCc1nnc(SCC(=O)N2CCCCCC2)o1)c1ccc(F)cc1	16.3%
CC1=C(C)/C(=N/OC(=O)c2cccc([N+](=O)[O-])c2)C=CC1=O	9.77%
CCCCCCNS(=O)(=O)c1ccc(NC(=O)C2CCCO2)cc1 (stereo not shown)	8.57%
COc1cc(OC)cc(C(=O)N[C@H](C(=O)OCC(=O)NC(=O)NC(C)(C)C)C(C)C)c1	4.51%
C[C@@H](NC(=O)CN1C(=O)c2ccccc2S1(=O)=O)c1ccccc1	12.9%
O=c1oc2c(CN3CCOCC3)c(O)ccc2c2c1CCC2	10.3%
